# Source: patent publication US6706740B2, “Fungicidal heterocyclic aromatic amides and their compositions, methods of use and preparation” (Dow AgroSciences LLC, priority 1999, dated 2004)
# System: Plasmopara viticola—PLASVI
# Assay: whole plant or invertebrate
# Assay type: in vivo
# Settings: Plasmopara, 24 h, read-out: PLASVI in vivo 1 Day Protectant, 100 ppm, 24 hour protectant, grape; control of fungal infection vs untreated plants
row,SMILES,pest or weed control at 100 ppm [%]
1,COc1ccnc(C(=O)NC2CC(C)(C)CC(C)(C(=O)c3ccccc3)C2)c1O (stereo not shown) [Compound 260],25 to 74
2,COc1ccnc(C(=O)N[C@H]2CO[C@](C)(C(C)CC3=C(C)CCCC3(C)C)OC2)c1O (stereo partly shown) [Compound 319],25 to 74
3,O=C(N[C@H]1CC2CC1[C@@H]1CCC[C@H]21)c1ncccc1O (stereo partly shown) [Compound 206],< 25
4,O=C(Nc1cccc(Cl)c1)c1ncccc1O [Compound 212],25 to 74
5,COc1ccnc(C(=O)N[C@@H]2CC(C)(C)C[C@](C)(C(=O)N(C)CCc3ccccc3)C2)c1O [Compound 262],25 to 74
6,COc1ccnc(C(=O)NC2CC(C)(C)CC3(C2)CC3(F)F)c1O (stereo not shown) [Compound 255],< 25
7,COc1ccnc(C(=O)N[C@H]2CO[C@H](C(C)Cc3ccc(C(C)(C)C)cc3)OC2)c1O (stereo partly shown) [Compound 316],25 to 74
8,Cc1cccc(CNC(=O)c2ncccc2O)c1 [Compound 222],< 25
9,COc1ccnc(C(=O)NC(C)c2ccc(C(F)(F)F)cc2)c1O (stereo not shown) [Compound 247],25 to 74
10,COc1ccnc(C(=O)N[C@@H]2CCCC[C@H]2SC)c1O [Compound 273],25 to 74
11,COc1ccnc(C(=O)NC2CC(C)(C)C(=O)C(C)(C)C2)c1O [Compound 266],< 25
12,COc1ccnc(C(=O)NC2CCN(C(=O)CCc3ccccc3)CC2)c1O [Compound 309],< 25
13,Cc1ccnc(C(=O)NC2COC(=O)[C@H](Cc3ccccc3)[C@@H](OC(=O)C(C)C)[C@H](C)OC2=O)c1O (stereo partly shown) [Compound 237],< 25
14,COc1ccnc(C(=O)NC2CC(C)(C)CC(C)(C3CC3)C2)c1O (stereo not shown) [Compound 252],< 25
15,O=C(Nc1nccs1)c1ncccc1O [Compound 235],< 25
16,Cc1ccc(CNC(=O)c2ncccc2O)cc1 [Compound 223],25 to 74
17,COc1ccnc(C(=O)NC2CCN(C(=O)c3ccccc3)CC2)c1O [Compound 308],25 to 74
18,C[C@H](NC(=O)c1ncccc1O)c1cccc2ccccc12 [Compound 232],< 25
19,COc1ccnc(C(=O)NC2CC(C)(C)CC(C)(COCC(Cl)CCl)C2)c1O (stereo not shown) [Compound 257],25 to 74
20,COc1ccnc(C(=O)NC2CC(C)(C)C(Oc3cc(C(F)(F)F)cc(C(F)(F)F)n3)C(C)(C)C2)c1O (stereo not shown) [Compound 272],< 25
21,COc1ccnc(C(=O)NC2CCN(Cc3cccc(C(F)(F)F)c3)CC2)c1O [Compound 307],< 25

# Same assay, conditions: Plasmopara, 24 h, read-out: PLASVI in vivo 1 Day Protectant, 100 ppm, grape, 24 hour protectant, % control of fungal infection vs untreated plants
row,SMILES,pest or weed control at 100 ppm [%]
1,CCCC(=O)Oc1c(OC)ccnc1C(=O)N[C@H]1COC(=O)[C@H](Cc2ccccc2)[C@@H](OC(=O)C(C)C)[C@H](C)OC1=O [Compound 599],< 25
2,COc1ccnc(C(=O)N[C@H]2COC(=O)[C@H](Cc3ccccc3)[C@@H](OC(=O)C(C)C)[C@H](C)OC2=O)c1OC(=O)CCc1ccccc1 [Compound 650],< 25
3,COc1ccnc(C(=O)N[C@H]2COC(=O)[C@H](Cc3ccccc3)[C@@H](OC(=O)C(C)C)[C@H](C)OC2=O)c1OC(=O)C=C(C)C [Compound 607],< 25
4,COc1ccnc(C(=O)N[C@H]2COC(=O)[C@H](Cc3ccccc3)[C@@H](OC(=O)C(C)C)[C@H](C)OC2=O)c1OC(=O)O[C@@H]1C[C@H](C)CC[C@H]1C(C)C [Compound 690],< 25
5,COc1ccnc(C(=O)N[C@H]2COC(=O)[C@H](Cc3ccccc3)[C@@H](OC(=O)C(C)C)[C@H](C)OC2=O)c1OC(=O)C(C)(C)C [Compound 605],< 25
6,COCCC(=O)Oc1c(OC)ccnc1C(=O)Nc1ccc(Sc2cccc(C(F)(F)F)c2)cc1 [Compound 712],25 to 74
7,COc1ccnc(C(=O)N[C@H]2COC(=O)[C@H](Cc3ccccc3)[C@@H](OC(=O)C(C)C)[C@H](C)OC2=O)c1OC(=O)c1ccc(Cl)nc1 [Compound 669],< 25
8,CCOC(=O)Oc1c(OC)ccnc1C(=O)N[C@H]1COC(=O)[C@H](Cc2ccccc2)[C@@H](OC(=O)C(C)C)[C@H](C)OC1=O [Compound 679],25 to 74
9,COc1ccnc(C(=O)N[C@H]2COC(=O)[C@H](Cc3ccccc3)[C@@H](OC(=O)C(C)C)[C@H](C)OC2=O)c1OC(=O)c1cccs1 [Compound 674],< 25
10,COCCC(=O)Oc1c(OC)ccnc1C(=O)N[C@H]1COC(=O)[C@H](Cc2ccccc2)[C@@H](OC(=O)C(C)(C)C)[C@H](C)OC1=O [Compound 703],< 25

# Same assay, conditions: Plasmopara, 24 h, read-out: PLASVI in vivo 1 Day Protectant, 100 ppm, grape, 24 hour protectant; control of fungal infection vs untreated plants
row,SMILES,pest or weed control at 100 ppm [%]
1,COc1ccnc(C(=O)Nc2ccc(Oc3ccccc3C#N)cc2)c1O [Compound 420],< 25
2,COc1ccccc1Oc1cccc(NC(=O)c2nccc(OC)c2O)c1 [Compound 430],< 25
3,COc1cccc(Oc2cccc(NC(=O)c3nccc(OC)c3O)c2)c1 [Compound 431],< 25
4,COc1ccnc(C(=O)N[C@@H](CO)C(=O)O[C@@H](C)[C@H](OC(=O)C(C)C)[C@@H](Cc2ccccc2)C(=O)O)c1O [Compound 341],< 25
5,COc1ccnc(C(=O)Nc2cccc(Oc3ccc(C)cc3)c2)c1O [Compound 414],< 25
6,COc1ccnc(C(=O)Nc2ccc(C(=O)Oc3ccc(C(F)(F)F)cc3)cc2)c1O [Compound 452],< 25
7,COc1ccnc(C(=O)Nc2cccc(Oc3ccc(C(F)(F)F)cc3)c2)c1O [Compound 423],< 25
8,COc1ccnc(C(=O)Nc2ccc(Oc3ccccc3Cl)cc2)c1O [Compound 441],< 25
9,COc1ccnc(C(=O)Nc2ccc(Oc3cccc(C)c3)cc2)c1O [Compound 416],< 25
10,COc1ccnc(C(=O)Nc2ccccc2Oc2cccc(Cl)c2)c1O [Compound 437],< 25
11,COc1ccnc(C(=O)Nc2ccc(C(=O)c3cccc(C(F)(F)F)c3)cc2)c1O [Compound 405],< 25
12,COc1ccnc(C(=O)N[C@@H](COCc2ccccc2)C(=O)O[C@@H](C)[C@H](OC(=O)C(C)C)[C@@H](Cc2ccccc2)C(=O)OCc2ccccc2)c1O [Compound 342],< 25

# Same assay, conditions: Plasmopara, 24 h, read-out: PLASVI in vivo 1 Day Protectant, grape plants, 100 ppm, 24 hour protectant; control of fungal infection vs untreated plants
row,SMILES,pest or weed control at 100 ppm [%]
1,COc1nc(O)c(C(=O)N[C@H]2COC(=O)[C@H](Cc3ccccc3)[C@@H](OC(=O)C(C)C)[C@H](C)OC2=O)nc1Cl [Compound 537],25 to 74
2,COc1ccnc(C(=O)NC(COC(=O)C(C)Cc2ccccc2)C(=O)OC(C)C)c1OC(C)=O (stereo not shown) [Compound 588],< 25
3,COc1ccnc(C(=O)N[C@H]2C[C@@H](C(F)(F)F)C[C@@H](C(F)(F)F)C2)c1OC(C)=O [Compound 576],< 25
4,Cc1ccc(C(=O)N[C@H]2COC(=O)[C@H](Cc3ccccc3)[C@@H](OC(=O)C(C)C)[C@H](C)OC2=O)c(O)n1 [Compound 525],< 25
5,CC(=O)Oc1cccnc1C(=O)N[C@H]1COC(=O)[C@H](Cc2ccccc2)[C@@H](OC(=O)C(C)C)[C@H](C)OC1=O [Compound 568],< 25
6,O=C(Nc1ccc(Oc2ccc(C(F)(F)F)cc2)cc1)c1nc(Br)ccc1O [Compound 499],25 to 74
7,COc1ccnc(C(=O)N[C@@H]2O[C@H](COC(C)=O)[C@H](OC(C)=O)[C@H](OC(C)=O)[C@H]2OC(C)=O)c1OC(C)=O [Compound 591],25 to 74
8,COc1ccnc(C(=O)NC(COC(=O)CCc2ccccc2)C(=O)OC(C)COC(=O)C(C)C)c1OC(C)=O (stereo not shown) [Compound 590],< 25
9,CC(C)C(=O)O[C@H]1[C@H](C)OC(=O)[C@@H](NC(=O)c2conc2O)COC(=O)[C@@H]1Cc1ccccc1 [Compound 561],25 to 74
10,CC1(C)CC(NC(=O)c2cc(O)cnc2O)CC(C)(C)C1 [Compound 526],< 25
11,CCOc1ccnc(C(=O)NC2CC(C)(C)CC(C)(C)C2)c1O [Compound 474],< 25
12,CSc1nnc(C(=O)Nc2ccc(Oc3cccc(C(F)(F)F)c3)cc2)c(O)n1 [Compound 548],25 to 74
13,CC(C)C(=O)O[C@H]1[C@H](C)OC(=O)[C@@H](NC(=O)c2cncnc2O)COC(=O)[C@@H]1Cc1ccccc1 [Compound 540],< 25
14,O=C(Nc1ccc(Oc2cccc(C(F)(F)F)c2)cc1)c1nc(Br)ccc1O [Compound 498],< 25
15,O=C(NCCc1ccc(Cl)cc1)c1cccnc1O [Compound 518],25 to 74
16,COc1ccnc(C(=O)N[C@H]2CO[C@@H](C(C)Cc3ccc(C(C)(C)C)cc3)OC2)c1OC(C)=O (stereo partly shown) [Compound 593],25 to 74
17,COCCC(=O)Oc1cccnc1C(=O)N[C@H]1COC(=O)[C@H](Cc2ccccc2)[C@@H](OC(=O)C(C)C)[C@H](C)OC1=O [Compound 569],25 to 74
18,COc1ccnc(C(=O)NC2CC(C)(C)C(=O)C(C)(C)C2)c1OC(C)=O [Compound 575],< 25
19,COc1ccc(C(C)NC(=O)c2nc(Br)ccc2O)cc1 (stereo not shown) [Compound 486],< 25
20,CSc1ccnc(C(=O)NC2COC(=O)[C@H](Cc3ccccc3)[C@@H](OC(=O)C(C)C)[C@H](C)OC2=O)c1O (stereo partly shown) [Compound 478],25 to 74
21,COc1ccc(CNC(=O)c2nc(Br)ccc2O)cc1 [Compound 482],< 25
22,CC(C)C(=O)O[C@H]1[C@H](C)OC(=O)[C@@H](NC(=O)c2ccncc2O)COC(=O)[C@@H]1Cc1ccccc1 [Compound 513],25 to 74
23,COC(=O)C(COC(=O)COCc1ccccc1)NC(=O)c1nccc(OC)c1OC(C)=O (stereo not shown) [Compound 585],< 25
24,CC1(C)CC(NC(=O)c2cncnc2O)CC(C)(C)C1 [Compound 539],< 25
